Measurements as given in PubChem BioAssay AID493208 (National Center for Advancing Translational Sciences (NCATS), 2011).
The whole screen tested about 44,000 compounds, of which about 340 (0.77%) were called active. Another 5% or so got no clear call; they are omitted. The call rests on the fitted dose curve; in most records, active means well fitted inhibition curve with a large enough effect; inconclusive means small, poorly fitted or top-dose-only effect; inactive means flat fitted curve, though single readings scatter. The list shows a part of the results.

Assay: Acumen qHTS Assay for Inhibitors of the mTORC1 Signaling Pathway in MEF (Tsc2-/-, p53-/-) Cells: Sytravon;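 further: plate controls were DMSO for no effect and rapamycin for full effect; nearly all actives have a fitted effect of over 50% in size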
Settings: phospho-rpS6 immunofluorescence/PI, 24 h; series mostly up to 38.3 µM; activity change, negative = inhibition: at the top concentration
Summary of the method: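 Tsc2-/-, p53-/- mouse embryonic fibroblasts (empty-vector line) exposed to compound 24 hrs at 37 C, fixed, immunostained for phospho-rpS6 and counterstained with propidium iodide. Acumen laser scanning gives % positive cells from Alexa 488/PI ratio, thresholded using 7.5 nM rapamycin; PI count gives viability.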

Compound | activity change, negative = inhibition
COc1ccc(NC(=O)C2CCCN2S(=O)(=O)c2cccc3cccnc23)cc1OC (stereo unspecified) | inactive: 2.96%
CC(C)Oc1ccc(CNC(=O)c2ccc(NC(=O)N3CCSc4ncccc43)cc2)cc1 | inactive: 0.0523%
CN(C)c1ccc(CNC(=O)C2CCN(S(=O)(=O)c3ccc4c(ccn4C)c3)CC2)cc1 | inactive: -0.892%
Cc1ccc(C)c(Nc2nn3c(=O)c4ccc(C(=O)NCCc5ccccc5)cc4nc3s2)c1 | inactive: 1.4%
Cc1n[nH]c(C)c1S(=O)(=O)N1CCCC(C(=O)Nc2ccc(Cl)cc2)C1 (stereo unspecified) | inactive: -17.7%
CCN(C(=O)Cn1cc(S(=O)(=O)Cc2ccccc2Cl)c2ccccc21)c1ccccc1 | inactive: -0.265%
Cc1ccc(C)c(N2CCN(C(=O)Cn3c(-c4cccs4)cc4ccccc43)CC2)c1 | inactive: -17.8%
CCOC(=O)c1ccc(NC(=O)C(CC)Sc2nc3ncccc3o2)cc1 (stereo unspecified) | inactive: -5.15%
Cc1ccc(N2CCN(C(=O)c3c4c(nc5ccccc35)C(=O)N(C3CCCCC3)C4)CC2)c(C)c1 | inactive: 8.42%
COc1ccc(C(=O)Nc2nc3c(s2)CCc2cc(OC)ccc2-3)cc1 | inactive: -1.32%
COCCCn1c(SCC(=O)NCc2ccccc2)nc2c(sc3ccccc32)c1=O | inactive: 1.21%
CCCCNc1nc(Oc2ccc(OCC(N)=O)nn2)nc(N2CCOCC2)n1 | inactive: -1.36%
Cc1ccc(-n2ncc3c(N4CCN(CCO)CC4)ncnc32)cc1Cl | inactive: 16.2%
CCOc1cc(C2c3c(oc4ccc(F)cc4c3=O)C(=O)N2Cc2ccco2)ccc1O (stereo unspecified) | inactive: -1.46%
Cc1ccc(-n2c(SCC(=O)Nc3ccc4c(c3)OCO4)nc3c([nH]c4ccccc43)c2=O)cc1 | inactive: -6.11%
Cc1ccc(-c2cc(C(=O)NCc3cnn(C)c3)c3cc(Br)ccc3n2)cc1 | inactive: -17%
CCc1ccccc1N(C)C(=O)c1cnc(N2CCOCC2)c2ccccc12 | inactive: -4.84%
Cc1cccc(C(=O)N2CCc3cc(CNC(=O)Cc4ccc(F)cc4)ccc32)c1 | inactive: -9.66%
Cc1cc(Br)ccc1NC(=O)c1cn(C2CCCC2)c(=O)c2c1c1ccccc1n2C | inactive: -3.99%
Cc1ccc(Cc2nc3ccccc3nc2SCC(=O)NCc2ccc(F)cc2)cc1 | inactive: -0.0206%
COc1ccc(CCNc2ncnc3c2c(-c2ccccc2)cn3-c2ccc(F)cc2)cc1OC | inactive: 0.605%
CCC(=O)C1=C(c2cccc([N+](=O)[O-])c2)N(C(=O)CC)n2c(nnc2-c2ccccc2)S1 | inactive: -3.19%
Cc1ccc2oc(=O)c3cnn(CC(=O)N4CCN(c5cc(Cl)ccc5C)CC4)c3c2c1 | inactive: -1.84%
COc1ccc(CCNC(=O)Cn2c(=O)n(-c3cc(OC)c(OC)c(OC)c3)c(=O)c3ccccc32)cc1OC | inactive: 9.56%
COc1cccc(CNc2nc3c(-c4ccccc4)nnn3c3ccccc23)c1 | inactive: -1.37%
CCOc1ccc(NC(=O)c2cc(S(=O)(=O)N3CCCCC3)c[nH]2)cc1 | inactive: -4.67%
